From the RNAGym collection of RNA variant scans (doi:10.7554/elife.90254)
The source gives no read counts; variants with many changes may rest on few reads.

B1: OR4K15 (parent)
chain: GUUAACGGUCAUAGGCCAUGGAAACUAGGAGCACCAUUUCGCUGCCAGUGAAGAAAUGAACAAAGAAAAUCUGGGCCAGGCAGGCAUCAAAAGAAAUAGUCUUGCGCUCAACCAGAAAGUCUGUAAUCAUUUUAAGGGUA

Variants of: B1
Assay: self-cleavage, relative activity (ratio to wild type); higher = more cleavage; in vitro, sequencing; the parent is a self-cleaving ribozyme
Variant GUUAACGGACAUAGGCCAUGGAAACUAGGAGCACCAUUUCGCUGCCAGUGAAGAAAAGAACAAAGAAAAUCUGGGCCAGGCAGGCAUCAAAAGAAAUAGUCUUGCGCUCAACCAGAAUGUCUGUAAUCAUUUUAAGGGUA has a self-cleavage of 0.38.
Variant GUUAACGGACAUAGGCCAUGGAAACUAGGAGCACCAUUUCGCUGCCAGUGAAGAAAUGAACAAAGAAAAUCUGGGCCAGGCAGGCAACAAAAGAAAUAGUCUUGCGCUCAACCAGAAAGUCUGUAAUCAUUCUAAGGGUA has a self-cleavage of 1.13.
For GUUAACGGACAUAGGCCAUGGAAACUAGGAGCACCAUUUCGCUGCCAGUGAAGAAAUGAACAAAGAAGAUCUGGGCCAGGCAGGCACCAAAAGAAAUAGUCUUGCGCUCAACCAGAAAGUCUGUAAUCAUUUUAAGGGUA, the self-cleavage was 1.88.
GUUAACGGACAUAGGCCAUGGAAACUAGGAGCACCAUUUCGCUGCCAGUGAAGAAAUGAACAAAGAAAAUCUGGGCCAGGCGGGCAUCAAAAGAAAUAGUCUUGCGCUCAACCAGAAAGUCUGUAAUCAUUCUAAGGGUA showed a self-cleavage of 0.51.
In the case of GUUAACGGACAUAGGCCAUGGAAACUAGGAGCACCAUUUCGCAGCCAGUGAAGAAAUGAACAAAGAAAAUCUGGGCCAGGCAGGCAUCAAAAGAAAUAGUCUUGCGCUCAACCAGAAAGUCUGUAAUCGUUUGAAGGGUA, the self-cleavage is reported as 0.56.
GUUAACGGACAUAGGCCAUGGAAACUAGGAGCACCAUUUCGCUGCCAGUGAAGAAAUGAACAAAGAAAAUCUGGGCCAGGCAGGCAUCAGAAGAAAUAGUCUUGCGCUCAACCAGAAAGUCUGUAAUCAUUUUAGGGGUA showed a self-cleavage of 0.89.
In the case of GUUAACGGACAUAGGCCAUGGAAACUAGGAGCACCAUUUCGCUGCCAGUGAAGAAAUGAACAAAGAAAAUCUGGGCCUGGCAGGCAUCAAGAGAAAUAGUCUUGCGCUCAACCAGAAAGCCAGUAAUCAUUUUAAGGGUA, the self-cleavage is reported as 0.05.
With GUUAACGGACAUAGGCCAUGGAAACUAGGAGCACCAUUUCGCAGCCAGUGAAGAAAUGAACAAAGAAAAUCUGGGCCAGGCGGGCGUCAAAAGAAAUAGUCUUGCGCUCAACCAGAAAGUCUGUAAUCAUUUUAAGGGUA the self-cleavage was 0.28.
GUUAACGGACAUAGGCCACGGAAACUAGGAGCACCAUUUCGCUGCCAGUGAUGAAAUGGACAAAGAAAAUCUGGGCCAGGCAGGCAUCAGAAGAAAUAGUCUUGCGCUCAACCAGAAAGUCUGUAAUCAUUUUAAGGGUA showed a self-cleavage of 0.17.
Variant GUUAACGGACAUAGGCCAUGGAAACUAGGAGCACCAUUUCGCUGCCAGUGAAGAAAUGAACAAAGAAAAACUGGGCCAGGCAGGCAUCAAAAGAAAUAGUCUUGCGCUCAACCAGAAAGUCCGUAAUCAUUUUAAGGGUA has a self-cleavage of 0.49.
Work on GUUAACGGACAUAGGCCACGGAAACUAGGAGCACCAUUUCGCUGCCAGUGAAGAAAUGAACAAAGAAAAUCUGGGCCAGGCAGGCAUCAAAAGAAAUAGUCUUGCGCUCAACCAGAAAGUCUGUAAUCAUCCUAAGGGUA yielded a self-cleavage of 1.39.
For GUUAACGGACAUAGGCCAUGGAAACUAGGAGCACCAUUUCGCGGCCAGUGAAGAAAUGAACAAAGAAAAUCUGGGCCAGGCAGGCAUCGAAAGAAAUAGUCUUGCGCUCAACCAGAAAGUCAGUAAACAUUUUAAGGGUA, the self-cleavage was 0.95.
Work on GUUAACGGACAUAGGCCAUGGAAACUAGGAGCACCAUUUCGCUGCCAGUGAAGAAAUGAACAAAGAAGAUCUGGGCCAGGCAGGCAUCAAAAGAAACAGUCUUGCGCUCAACCAGAAAGUCUGUAGUCAUUUUAAGGGUA yielded a self-cleavage of 1.42.
For GUUAACGGACAUAGGCCAUGGAAACUAGGAGCACCAUUUCGCAGCCAGUGAAGAAAUGAACAAAGAAAAUCUUGGCCAGGCAGGCAUCAAAAGAAAUAGUCUUGCGCUCAACCAGAAAGUCUGUAAUCAUUUUAAGGGUA, the self-cleavage was 0.21.
In the case of GUUAACGGACAUAGGCCAUGGAAACUAGGAGCACCACUUCGCUGCCAGUGAAGAAAUGAACAAAGAAAAUCUGGGCCAGGCAGGCAUCAAAAGAAAUAGUCUUGCGCUCAACCAGAAAGUCUGUAAUCAGUUUAAGGGUA, the self-cleavage is reported as 0.67.
Work on GUUAACGGACAUAGGCCAUGGAAACUAGGAGCACCAUAUCGCUGCCAGUGAAGAAAUGAACAAAGAAAAUCUGGGCCAGGCAGGCAUCAAAAGAAAUAGUCUUGCGCUCAACCCGAAAGUCUGUAAUCAUUUUAAGGGUA yielded a self-cleavage of 0.04.
Variant GUUAACGGACAUAGGCCACGGAAACUAGGAGCACCAUUUCGCUGCCAGUGAAGAAACGAACAAAGAAAAUCUGGGCCAGGCAGGCAUCAGAAGAAAUAGUCUUGCGCUCAACCAGAAAGUCUGUAAUAAUUUCAAGGGUA has a self-cleavage of 0.76.
GUUAACGGACAUAGGCCAUGGAAACUAGGAGCACCAUUUCGCUGCCAGUGAAGAAAUGAACAAAGAAGAUCUGGGCCAGGCAGGCAUCAAAAGAAAUAGUCUUGCGCUCAACCAGAAAGCCUGUAAACAUUUUGAGGGUA gave a self-cleavage of 1.08.
GUUAACGGACAUAGGCCAUGGAAACUAGGAGCACCAUUUCGCUGCCAGUGAAGAAAUGAACAAAGAAAAUCUGGGCCAGGCAGGCAUCAAAAGAAAUAGUCUCGCGCUCAACCAGAAAGUCUGUAAUCAUUAUAAGGGUA gave a self-cleavage of 0.14.
For GUUAACGGACAUAAGCCAUGGAAACUAGGAGCACCAUUUCGCUGCCUGUGAAGAAAUGAACAAAGAAAAUCUGGGCCAGGCAGGCAUCAAAAGAAAUAGUCUUGCGCUCAACCAGGAAGUCUGUAAUCAUUUUAAGGGUU, the self-cleavage was 0.2.
